Measured values published in PubChem BioAssay AID1645882 (National Center for Advancing Translational Sciences (NCATS), 2021).
In all, about 16,000 compounds went through this assay and about 120 (0.75%) were called active. About 4% were inconclusive and are not listed. The call rests on the fitted dose curve; in most records, active means well fitted inhibition curve with a large enough effect; inconclusive means small, poorly fitted or top-dose-only effect; inactive means no such curve, though single readings can be large or run the other way. This is one part of the list.

biological target: Rap guanine nucleotide exchange factor 3 (Homo sapiens) (UniProt O95398); test: Validation qHTS for antagonist of cAMP-regulated guanine nucleotide exchange factor 3 (EPAC1); conditions: EPAC1 Rap1B-BODIPY-GDP exchange, fluorescence; series mostly up to 150 µM; activity change, negative = inhibition: at the top concentration;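 further: plate controls were DMSO for no effect and ATA control for full effect; nearly all actives have a fitted effect of over 75% in size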
In short: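 EPAC1 (100 nM) mixed with 250 nM RAP1B-BODIPY-GDP and 50 uM GDP; compounds in concentration series, 5 min at room temperature. Fluorescence (ex 480/em 540 nm) read every 5 min for 30 min; normalized to ATA control and DMSO.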

Sequence of UniProt O95398 (O95398 whole entry, looked up): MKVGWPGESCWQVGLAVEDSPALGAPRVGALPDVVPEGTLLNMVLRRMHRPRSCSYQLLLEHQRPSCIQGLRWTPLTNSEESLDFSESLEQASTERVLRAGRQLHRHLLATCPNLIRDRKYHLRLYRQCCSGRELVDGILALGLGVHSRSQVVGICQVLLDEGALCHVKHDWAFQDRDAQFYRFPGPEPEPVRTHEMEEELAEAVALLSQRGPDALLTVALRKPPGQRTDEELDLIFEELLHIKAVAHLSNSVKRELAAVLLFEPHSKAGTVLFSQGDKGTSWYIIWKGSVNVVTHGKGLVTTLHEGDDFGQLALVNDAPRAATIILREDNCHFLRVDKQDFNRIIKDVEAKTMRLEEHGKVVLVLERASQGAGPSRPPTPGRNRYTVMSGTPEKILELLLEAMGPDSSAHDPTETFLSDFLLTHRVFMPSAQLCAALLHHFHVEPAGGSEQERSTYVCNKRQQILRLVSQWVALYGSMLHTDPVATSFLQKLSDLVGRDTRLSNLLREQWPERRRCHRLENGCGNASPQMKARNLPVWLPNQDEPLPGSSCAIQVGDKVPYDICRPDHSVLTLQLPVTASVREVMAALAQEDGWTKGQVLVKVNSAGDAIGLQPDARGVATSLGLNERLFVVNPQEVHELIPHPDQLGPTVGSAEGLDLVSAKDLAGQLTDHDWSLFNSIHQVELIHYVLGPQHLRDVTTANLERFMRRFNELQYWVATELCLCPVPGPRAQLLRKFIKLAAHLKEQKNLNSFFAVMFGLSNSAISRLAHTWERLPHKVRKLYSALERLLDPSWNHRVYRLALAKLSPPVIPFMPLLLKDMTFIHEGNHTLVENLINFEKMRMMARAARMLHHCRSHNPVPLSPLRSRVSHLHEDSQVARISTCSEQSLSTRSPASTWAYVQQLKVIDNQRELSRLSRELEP

Activity change, negative = inhibition, inactive:
CCCCC(CC)COC(=O)C(C#N)=C(c1ccccc1)c1ccccc1 (stereo not drawn) -6.26%
Nc1c2c(nc3ccccc13)CCCC2
CN(C)C(=O)c1ccc(-c2ccc3ncnc(N(C)Cc4ccco4)c3c2)cc1 11.8%
COc1ncc2nc(-c3ccc(Cl)cc3)c(=O)n(C)c2n1 12.5%
CC(=O)c1c(O)c(C)c(O)c2c1OC1=CC(=O)C(C(C)=O)C(=O)[C@@]12C (stereo partly drawn) 11.3%
CC(C)(C)C(=O)OCC(=O)[C@H]1CC[C@H]2[C@@H]3CCC4=CC(=O)CC[C@]4(C)[C@H]3CC[C@]12C 6.25%
COc1ccc(CN2CCC3(CC2)c2ccccc2[C@@H](NC(=O)c2ccccc2OC)[C@@H]3O)cc1O 6.91%
O=c1c(-c2cc(F)cc(F)c2)nc2cnc(N3CCOCC3)nc2n1-c1ccccc1 12.4%
CN(C)c1ccc(/C=C/c2ccnc3ccccc23)cc1Cl -3.26%
C/C(=C(\CCOP(=O)(O)O)SC(=O)c1ccccc1)N(C=O)Cc1cnc(C)nc1N 4.24% [at 75.8 µM]
O=C1CCC[C@@H]2[C@@H](Cc3ccccc3)[C@@H](Nc3ccccc3)C[C@@H]3CCN1[C@@H]32 -1.4%
CC(=O)SC1CC2=CC(=O)CC[C@]2(C)C2CC[C@@]3(C)C(CC[C@@]34CCC(=O)O4)C12 (stereo partly drawn) 15.8% [at 75.8 µM]
CCN(CC)C(=S)SSC(=S)N(CC)CC
CN1CCN(c2ncnc3ccc(-c4cccc(C#N)c4)cc23)CC1 0.851%
O=c1cnc2cnc(Nc3ccccc3)nc2n1Cc1ccc(F)cc1 11.9%
O=S(=O)(c1ccccc1)N1CCC2(CCCN(c3ccccc3)C2)CC1 5.08%
COc1cccc(CN2CCCC(c3nc(-c4ccncc4)ncc3-c3ccccc3C)C2)c1O (stereo not drawn) -0.271%
Cc1cc2nc3ccc(=[N+](C)C)cc-3sc2cc1N -6.65%
CCCCCCc1ccc(N2C[C@H](CCCCC)[C@@H](CC(=O)NCc3ccc(OC)cc3)C2=O)cc1 -9.97%
O=C(O)[C@@H]1CSCN1 9.59%
C=C[C@@]1(C)CC(=O)[C@]2(O)[C@@]3(C)[C@@H](O)CCC(C)(C)[C@@H]3[C@H](O)[C@H](OC(C)=O)[C@@]2(C)O1 2.77%
CCCCC/C=C\C\C=C/C=C/C=C/[C@@H](SC[C@H](N)C(=O)NCC(=O)O)[C@@H](O)CCCC(=O)O 25.7% [at 1.57 µM]
CCC1CN(CCNC(=O)c2cn3cc(C)ccc3n2)Cc2cc(OC)ccc2O1 (stereo not drawn) 4.21%
Nc1ccn([C@@H]2O[C@H](CO)[C@@H](O)C2O)c(=O)n1 (stereo partly drawn)
COc1cc(OC)c2c(=O)c(-c3ccccc3)coc2c1 -10.8%
CN1CCN(c2ccnc(-c3ccoc3)n2)CC1 -16.5%
COCC(=O)N1CCC2(CC1)CN(c1ccccn1)C2 9.53%
COC(=O)c1cccc(C(=O)N2CCc3c(cnc(C)c3CNC(=O)/C=C/c3cccs3)C2)c1 1.87%
CCN(CC)CCOc1ccc2c(c1)C(=O)c1cc(OCCN(CC)CC)ccc1-2 15.2%
COc1ccccc1-c1nccc(NC2CCNCC2)n1 -0.32%
CC/C(=C\c1ccc(C(=O)OC)cc1)c1cc(OC)cc2oc3ccccc3c12 10.7%
CCS(=O)(=O)NCc1c(C)ncc2c1CCN(C(=O)c1csc(-c3cccs3)n1)C2 6.79%
Oc1ccc(Cn2cc[nH]c2=S)cc1 5.13% [at 75.8 µM]
C=C[C@H](CC(C)C)N(Cc1ccccc1)S(=O)(=O)N(Cc1ccccc1)[C@@H](C=C)CC(C)C 0.32%
COc1ccc(-c2ccnc(-n3ncc(C(=O)NC(C)(C)CO)c3C3CC3)n2)cc1F 5.31%
CC(=O)N1CCC2(CC1)CCN(c1ccccc1)CC2 12.3%
CNc1nc(-c2ccccc2OC)nc2ccccc12 22.8%
OCC(O)CO 13.7%
CC(C)C[C@H](NC(=O)C1OC1C(=O)O)C(=O)NCCCCN=C(N)N (stereo partly drawn) -11.1% [at 75.8 µM]
COc1ccccc1N1CCN(CCN(C(=O)c2ccc(F)cc2)c2ccccn2)CC1 -4.64% [at 75.8 µM]
c1ccc(-c2ccccn2)nc1 -8.53% [at 75.8 µM]
CC1(C)O[C@@H]2C[C@H]3[C@@H]4CCC5=CC(=O)C=C[C@]5(C)[C@H]4[C@@H](O)C[C@]3(C)[C@]2(C(=O)CO)O1 23.5%
Cc1ccnc(N)c1 8.88%
O=C(CCN1CCN(CCO)CC1)N1c2ccccc2Sc2ccc(C(F)(F)F)cc21 5.8%
COc1cc(-c2noc(C)c2C(=O)NCCc2c[nH]c3ccccc23)cc(OC)c1OC -1.29%
Cc1ccc(NC(=O)c2cccc(N(C)C)c2)cc1NC(=O)c1ccc(O)cc1
C[C@]12C[C@H](O)[C@H]3[C@@H](CCC4=CC(=O)CC[C@@]43C)[C@@H]1CC[C@@H]2C(=O)CO
CN1C(=O)CCC1c1cccnc1 (stereo not drawn)
NC(=O)OC[C@@H]1[C@H](NC(=O)/C(=N\OCC(=O)O)c2csc(N)n2)C(=O)N1S(=O)(=O)O -0.613%
CCC1OC(=O)C(C)[C@@H](O[C@H]2C[C@@](C)(OC)C(O)C(C)O2)C(C)[C@@H](O[C@@H]2OC(C)CC(N(C)C)C2O)[C@@](C)(O)CC(C)C2NC(COCCOC)O[C@H](C2C)[C@@]1(C)O (stereo partly drawn) 1.4%
COc1cccc(-c2cncnc2NCc2ccccc2)c1 18.9%
NC[C@H]1O[C@H](O[C@H]2[C@H](O)[C@@H](O[C@H]3O[C@H](CO)[C@@H](O)[C@H](N)[C@H]3O)[C@H](N)C[C@@H]2N)[C@H](O)[C@@H](O)[C@@H]1O 18.1% [at 75.8 µM]
CC[C@H]1OC(=O)C[C@@H](O)[C@H](C)[C@@H](O[C@@H]2O[C@H](C)[C@@H](O[C@H]3C[C@@](C)(O)[C@@H](O)[C@H](C)O3)[C@H](N(C)C)[C@H]2O)[C@@H](CC=O)C[C@@H](C)C(=O)/C=C/C(C)=C/[C@@H]1CO[C@@H]1O[C@H](C)[C@@H](O)[C@@H](OC)[C@H]1OC
c1cnc2cc3c(cc2n1)C1CNCC3C1 30.1% [at 320 µM]
CCO[C@H](Cc1ccc(OCCc2ccc(OS(C)(=O)=O)cc2)cc1)C(=O)O 1.31%
COc1cc(O)ccc1CN1CCc2nnc(C(C)NC(=O)c3cc(F)ccc3F)n2CC1 (stereo not drawn) 18.9%
COc1ccccc1-c1ccnc(-n2ncc(C(=O)N3CCCCC3c3cccnc3)c2C)n1 (stereo not drawn) 4.03%
COc1ccccc1CNc1cc(-c2ccccc2C(F)(F)F)ncn1 -26.4%
Cc1cc(C)c(NC(=O)C[C@H](CC(=O)O)c2cccc3ccccc23)c(C(=O)N2CCC3(CCCC3)CC2)c1 17.2%
CC(C)ON([C@@H](C(=O)NO)C(C)C)S(=O)(=O)c1ccc(-c2ccccc2)cc1 -2.03% [at 75.8 µM]
CN(C)c1ncc2nc(-c3cccs3)c(=O)n(-c3ccccc3)c2n1 12.7%
CC(C)CCCC(C)C1CCC2C3CC=C4CC(O)CC[C@@]4(C)C3CC[C@@]12C (stereo partly drawn) 9.17%
CCc1ccc2c(-c3cccc(Cl)c3)nc(=O)n(CC)c2n1
O=C(CCCCCCC(=O)Nc1ccccc1)NO
CCCCCCCN(c1ccccc1)C1C[C@H]2CCCC(=O)N3CC[C@@H](C1)[C@@H]23 (stereo partly drawn) -4.64%
Cc1cccc(C(=O)NCC2Cc3cc(F)cc(-c4cnccn4)c3O2)n1 (stereo not drawn) 10.5%
CCOC(=O)C[C@H]1c2cc(F)ccc2S(=O)(=O)N1Cc1cc(OC)c(OC)c(OC)c1 12.1%
CCN1CCCC1CNCc1cc2ccc(SC)cc2nc1-c1cc(OC)ccc1OC (stereo not drawn) 14.3%
COc1cc(=O)n2c(c1C(=O)N(C)Cc1cscn1)CCN(C(=O)c1cccc(C)c1C)CC2 8.58%
COc1ccccc1CNc1ccnc(-c2cccc(NS(C)(=O)=O)c2)n1 2.72%
O=c1cc(-c2ccccc2O)oc2cc(O)ccc12 2.48%
CC1OC(n2cc(F)c(=O)[nH]c2=O)C(O)C1O (stereo not drawn) 6.9%
CCCCCN(CCCCC)C(=O)C(CCC(=O)O)NC(=O)c1ccc(Cl)c(Cl)c1 (stereo not drawn)
N#CCCn1c(=O)c(-c2ccccc2)nc2cnc(Nc3ccccc3)nc21 12.1%
Nc1ccc(O)cc1 -22.7% [at 320 µM]
CC(C)NCC(O)c1ccc(O)c(O)c1 (stereo not drawn)
CC(C)(C)NC(=O)[C@@H]1C[C@@H]2CCCC[C@@H]2CN1C[C@@H](O)[C@H](Cc1ccccc1)NC(=O)[C@H](CC(N)=O)NC(=O)c1ccc2ccccc2n1 -21.1%
O=C(NCC1Cc2cccc(-c3cncnc3)c2O1)C1CC1 (stereo not drawn) 9.37%
CN1CCN(c2ncnc3ccc(-c4ccccc4C(F)(F)F)cc23)CC1 -7.54%
C[C@@H]1CCC(=O)N(CC[C@H](Sc2ccccc2)c2ccccc2)CC1 -2.57%
COCC(=O)N1CCC2(CC1)CCN(c1ccc(-c3ccccc3)cc1)CC2 11.1%
CCN(CC)c1ccc(N=Nc2ccc(S(=O)(=O)N(C)C)cc2)c(S(=O)(=O)NCC[n+]2ccccc2)c1 19.8%
COC(=O)c1ccccc1-c1cc(C)cc2c1OC(CNC(=O)C1CCOC1)C2 (stereo not drawn) 3.47%
Cc1cc(NC2CCCCC2)nc(-n2nc(C)cc2C)n1 10.6% [at 75.8 µM]
NCCSSCCN
CC(C)CN1CCC(=O)N([C@H](CSc2ccccc2)Cc2ccccc2)CC1 -15.7%
Nc1nc2c(ncn2COCCO)c(=O)[nH]1
CN(C)c1nc(-c2cccc(NS(C)(=O)=O)c2)nc2ccccc12 -5.27%
COC(=O)C1=C(C(=O)OC)[C@]2([C@H]3C/C=C\CN[C@@H](Cc4ccccc4)C(=O)N3Cc3ccccc3)C=C[C@H]1O2 -4.37%
O=Nc1ccc(/C=C/c2ccnc3ccccc23)cc1 17.4%
NC(=O)n1c(O)c(C(=O)c2cccs2)c2cc(Cl)ccc21 22.1%
CN(C)c1ccc(/C=c2\[nH]c(=O)/c(=C/c3ccc(N(C)C)cc3)[nH]c2=O)cc1 8.25%
CC(=O)O[C@H]1C(=O)[C@@]2(C)C([C@H](OC(=O)c3ccccc3)[C@]3(O)C[C@H](OC(=O)[C@H](O)[C@@H](NC(=O)c4ccccc4)c4ccccc4)C(C)=C1C3(C)C)[C@]1(OC(C)=O)CO[C@@H]1C[C@@H]2O (stereo partly drawn)
